Reference: article PMC9867944 (Bioscience Reports, 2023)

Target: T1, anti-PD-1 Nb C12-Fc (Bactrian camel)
T1 construct: VHH C12 selected from a naive Bactrian camel phage display library; Nb C12 fused to the human IgG1 Fc fragment in plasmid pCZN1; about 40 kDa on SDS-PAGE; also called anti-PD-1 Nb-Fc; PD-1 C12 Nb-Fc
Experiment: far-Western, overlay or dot blot; Western blot: total protein of activated human T cells (RIPA lysate) on 10% SDS-PAGE, PVDF membrane probed with anti-PD-1 Nb-Fc (1:500) overnight at 4 C; HRP-conjugated antihuman IgG
Conditions: one partner purified

B1: PD-1 protein expressed on activated human T cells (receptor)
chain: not shown
notes: On fixed, permeabilised cells in the immunofluorescence; in a cell lysate resolved by SDS-PAGE in the Western blot; also called PD-1 protein on human CD4+ T cells
  binding result: binds
